Measured values as given in the supplement of paper PMC12217912.
This is one part of the list. The full chains were built here from the parent and the listed change. Inactive controls read about 0.05.

B1: TEV protease; numbered along this chain (parent)
chain: MGESLFKGPRDYNPISSSICHLTNESDGHTTSLYGIGFGPFIITNKHLFRRNNGTLVVQSLHGVFKVKDTTTLQQHLVDGRDMIIIRMPKDFPPFPQKLKFREPQREERICLVTTNFQTKSMSSMVSDTSCTFPSGDGIFWKHWIQTKDGQCGSPLVSTRDGFIVGIHSASNFTNTNNYFTSVPKNFMELLTNQEAQQWVSGWRLNADSVLWGGHKVFMVKPEEPFQPVKEATQL

Variants of: B1
Test: raw area under fraction-flipped curve 0-4 h after induction (AUC4h, not background-subtracted), DNA-recorder readout of cleavage of the substrate (dimensionless); higher = more cleavage of the substrate by the protease variant
Conditions: temperature: 34 °C; time window: 0-4 h after rhamnose induction
Method: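 In vivo DNA recorder in E. coli TOP10(DE3) ΔrhaA at 34 °C. Each TEVp single-site mutant (parent TEVp 0) is paired with a single-site variant of the 7-mer TEVs (canonical ENLYFQ|S). The substrate sits between flexible linkers in a Bxb1-sfGFP-TEVs-SsrA fusion, so cleavage stabilises Bxb1 and speeds flipping of a recombination array, read by NGS. The value is the raw area under the fraction-flipped curve over 0-4 h after rhamnose induction (AUC4h), with ≥20 reads per time point. It is not background-subtracted; inactive controls average about 0.047.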
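Note: Bxb1 expression induced with 0.2% (w/v) L-rhamnose at OD600 near 0.5, cultures sampled hourly, flipped fraction per protease–substrate barcode pair counted by paired-end Illumina sequencing.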

Variant | area with substrate ENAYFQS | area with substrate ENCYFQS | area with substrate ENDYFQS | area with substrate ENEYFQS | area with substrate ENGYFQS | area with substrate ENHYFQS | area with substrate ENKYFQS | area with substrate ENMYFQS | area with substrate ENNYFQS | area with substrate ENQYFQS | area with substrate ENSYFQS | area with substrate ENTYFQS | area with substrate ENVYFQS | area with substrate ENIYFQS | area with substrate ENPYFQS | area with substrate ENRYFQS | area with substrate ENWYFQS | area with substrate ENYYFQS | area with substrate ENFYFQS
MGESLFKGPRDYNPISSSICHLTNESDGHTTSLYGIGFGPFIITNKHLFRRNNGTLVVQSLHGVFKVKDTTTLQQHLVDGRDMIIIRMPKDFPPFPQKLKFREPQREERICLVTTNFQTKSMSSMVSDTSCTFPSGDGIFWKHWIQTKDGQCGSPLVSTRDGFIVGIHSASNFTNTNNYFTSVPKNFMELLTNQEAQQGVSGWRLNADSVLWGGHKVFMVKPEEPFQPVKEATQL [W199G] | 0.0574 | 0.0548 | 0.0765 | 0.0627 | 0.0516 | 0.0594 | 0.0492 | 0.0484 | 0.0627 | 0.0665 | 0.0584 | 0.0593 | 0.0493 |  |  |  |  |  | 
MGESLFKGPRDYNPISSSICHLTNESDGHTTSLYGIGFGPFIITNKHLFRRNNGTLVVQSLHGVFKVKDTTTLQQHLVDGRDMIIIRMPKDFPPFPQKLKFREPQREERICLVTTNFQTKSMSSMVSDTSCTFPSGDGIFWKHWIQTKDGQCGSPLVSTRDGFIVGIHSASNFTNTNNYFTSVPKNFMELLTNGEAQQWVSGWRLNADSVLWGGHKVFMVKPEEPFQPVKEATQL [Q194G] | 0.0622 | 0.0381 | 0.0584 | 0.0515 | 0.0587 | 0.0609 |  | 0.0773 | 0.0517 | 0.0601 | 0.0553 | 0.0579 | 0.0754 | 0.12 | 0.0359 | 0.0523 | 0.0343 | 0.0725 | 
MGESLFKGPRDYNPISSSICHLTNESDGHTTSLYGIGFGPFIITNKHLFRRNNGTLVVQSLHGVFKVKDTTTLQQHLVDGRDMIIIRMPKDFPPFPQKLKFREPQREERICLVTTNFQTKSMSSMVSDTSCTFPSGDGIFWKHWIQTKDGQCGSPLVSTRDGFIVGIHSASNFTNTNNYFTSVPKNFMELLSNQEAQQWVSGWRLNADSVLWGGHKVFMVKPEEPFQPVKEATQL [T192S] | 0.0566 | 0.0567 | 0.083 | 0.0424 | 0.0547 | 0.0691 |  | 0.0734 |  | 0.0723 | 0.0718 |  | 0.0745 |  | 0.0741 | 0.0503 |  | 0.0631 | 0.0583
MGESLFKGPRDYNPISSSICHLTNESDGHTTSLYGIGFGPFIITNKHLFRRNNGTLVVQSLHGVFKVKDTTTLQQHLVDGRDMIIIRMPKDFPPFPQKLKFREPQREERICLVTTNFQTKSMSSMVSDTSCTFPSGDGIFWKHWIQTKDGQCGSPLVSTRDGFIVGIHSASNFTNTNNYFTSVPKNFMELLLNQEAQQWVSGWRLNADSVLWGGHKVFMVKPEEPFQPVKEATQL [T192L] | 0.0629 | 0.0597 | 0.0542 | 0.0415 | 0.0772 | 0.0515 | 0.0685 |  | 0.0572 | 0.0643 | 0.059 | 0.0653 | 0.084 | 0.112 | 0.055 | 0.0651 |  |  | 0.0512
MGESLFKGPRDYNPISSSICHLTNESDGHTTSLYGIGFGPFIITNKHLFRRNNGTLVVQSLHGVFKVKDTTTLQQHLVDGRDMIIIRMPKDFPPFPQKLKFREPQREERICLVTTNFQTKSMSSMVSDTSCTFPSGDGIFWKHWIQTKDGQCGSPLVSTRDGFIVGIHSASNFTNTNNYFTSVPKNFMELLNNQEAQQWVSGWRLNADSVLWGGHKVFMVKPEEPFQPVKEATQL [T192N] | 0.0676 | 0.0684 | 0.0643 | 0.0458 | 0.065 | 0.0615 | 0.0672 | 0.0606 | 0.0533 | 0.0633 | 0.0688 | 0.0596 | 0.0631 | 0.133 | 0.0768 | 0.0437 | 0.0919 | 0.0528 | 
MGESLFKGPRDYNPISSSICHLTNESDGHTTSLYGIGFGPFIITNKHLFRRNNGTLVVQSLHGVFKVKDTTTLQQHLVDGRDMIIIRMPKDFPPFPQKLKFREPQREERICLVTTNFQTKSMSSMVSDTSCTFPSGDGIFWKHWIQTKDGQCGSPLVSTRDGFIVGIHSASNFTNTNNYFTSVPKNFMELLRNQEAQQWVSGWRLNADSVLWGGHKVFMVKPEEPFQPVKEATQL [T192R] | 0.0591 | 0.05 | 0.0618 | 0.0563 |  |  | 0.0715 | 0.0495 | 0.0633 | 0.055 | 0.0589 | 0.0337 |  |  | 0.0634 | 0.0517 | 0.0244 | 0.0425 | 0.0634
MGESLFKGPRDYNPISSSICHLTNESDGHTTSLYGIGFGPFIITNKHLFRRNNGTLVVQSLHGVFKVKDTTTLQQHLVDGRDMIIIRMPKDFPPFPQKLKFREPQREERICLVTTNFQTKSMSSMVSDTSCTFPSGDGIFWKHWIQTKDGQCGSPLVSTRDGFIVGIHSASNFTNTNNYFTSVPKNFMELLKNQEAQQWVSGWRLNADSVLWGGHKVFMVKPEEPFQPVKEATQL [T192K] | 0.057 |  |  | 0.0679 |  | 0.0518 |  | 0.0822 |  | 0.0574 | 0.0633 |  |  | 0.0064 |  | 0.0561 |  | 0.0621 | 0.0608
MGESLFKGPRDYNPISSSICHLTNESDGHTTSLYGIGFGPFIITNKHLFRRNNGTLVVQSLHGVFKVKDTTTLQQHLVDGRDMIIIRMPKDFPPFPQKLKFREPQREERICLVTTNFQTKSMSSMVSDTSCTFPSGDGIFWKHWIQTKDGQCGSPLVSTRDGFIVGIHSASNFTNTNNYFTSVPKNFMELLTNQEAQFWVSGWRLNADSVLWGGHKVFMVKPEEPFQPVKEATQL [Q198F] | 0.0634 | 0.0615 |  | 0.0596 | 0.0709 | 0.0627 | 0.0588 | 0.0728 | 0.0684 | 0.0616 | 0.0537 | 0.0615 | 0.0614 |  | 0.045 | 0.0531 |  | 0.0549 | 0.0596
